Reference: PubChem BioAssay AID588342 (National Center for Advancing Translational Sciences (NCATS), 2011)
Hit rate of the full screen: of about 360,000 compounds, about 25,000 (6.9%) were called active. Inconclusive means that the source gave no clear call. Such entries were picked first, then a sample of the others. Calls come from the whole dose curve; as a rule, active = well fitted inhibition curve with a large enough effect; inconclusive = small, poorly fitted or top-dose-only effect; inactive = flat fitted curve, though single readings scatter. Where the call is inconclusive, the potency comes from a doubtful curve fit.

Biological target: Luciferin 4-monooxygenase (Photinus pyralis) (UniProt P08659)
Experiment: qHTS profiling assay for firefly luciferase inhibitor/activator using purifed enzyme and Km concentrations of substrates (counterscreen for miR-21 project); note: nearly all actives have a fitted effect of over 55% in size
Details: purified FLuc, luminescence inhibition; series mostly up to 57.5 µM
Method in brief: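 Purified P. pyralis luciferase, 10 nM final, with Km-level 10 uM D-luciferin and 10 uM ATP in 50 mM Tris acetate pH 7.5, 10 mM Mg acetate, 0.01% Tween-20, 0.05% BSA; 6-point qHTS titration about 60 µM downward; luminescence read.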
Potency is the fitted concentration of half-maximal effect; tags give direction and shape of the fitted curve.

UniProt P08659, sequence (P08659 whole entry, looked up): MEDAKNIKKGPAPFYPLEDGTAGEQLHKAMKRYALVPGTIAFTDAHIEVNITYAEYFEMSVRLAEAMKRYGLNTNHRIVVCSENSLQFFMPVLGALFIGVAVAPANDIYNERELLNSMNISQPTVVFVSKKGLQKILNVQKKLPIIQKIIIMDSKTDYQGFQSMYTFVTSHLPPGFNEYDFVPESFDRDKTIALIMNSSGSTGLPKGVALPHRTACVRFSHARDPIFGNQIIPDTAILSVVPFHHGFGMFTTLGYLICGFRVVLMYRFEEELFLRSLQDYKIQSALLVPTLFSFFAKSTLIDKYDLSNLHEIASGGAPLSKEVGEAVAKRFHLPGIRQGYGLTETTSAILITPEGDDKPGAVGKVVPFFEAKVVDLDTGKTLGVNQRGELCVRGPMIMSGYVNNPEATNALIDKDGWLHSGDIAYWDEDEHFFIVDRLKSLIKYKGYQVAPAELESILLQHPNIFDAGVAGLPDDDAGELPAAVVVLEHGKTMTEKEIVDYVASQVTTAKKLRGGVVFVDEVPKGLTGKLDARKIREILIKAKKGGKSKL

Row | SMILES | Potency
1 | CCOC(=O)C1CCN(S(=O)(=O)c2cccc(-c3cn4cccc(C)c4n3)c2)CC1 | inconclusive: 37.9 µM [inhibitor, partial curve, poor fit]
2 | Cc1cccc(Nc2nc(-c3ccccn3)cs2)n1 | active: 1.69 µM
3 | C=CCN(CC=C)C(=O)Nc1cc(OC)ccc1OC | inactive
4 | CN(C)c1ccc(CNC(=O)Cc2ccc(NC(=O)N3CCCCc4ccccc43)cc2)cc1 | inconclusive: 26.9 µM [inhibitor, single point]
5 | COC(=O)COc1ccc2cc(-c3ccc(OC)cc3)c(=O)oc2c1 | inconclusive: 1.51 µM [inhibitor, full curve]
6 | COc1ccc(C)cc1NC(=O)CNC(=O)[C@@H]1Cc2ccccc2CN1 | inactive
7 | c1ccc(-c2onc(-c3ccco3)c2-c2ccc3c(c2)OCO3)cc1 | inconclusive: 30.1 µM [inhibitor, single point]
8 | COc1ccc(OCc2cc(C(=O)NCc3cccc(C)n3)no2)c(Cl)c1 | active: 23.9 µM
9 | CC1CC(Nc2ccccc2)c2ccccc2N1C(=O)c1cccnc1 (stereo not drawn) | inconclusive: 4.26 µM [inhibitor, partial curve, poor fit]
10 | COc1cc(C(=S)N2CCOCC2)cc(OC)c1OC(=O)c1ccc(F)cc1 | inconclusive: 30.1 µM [inhibitor, partial curve, poor fit]
11 | O=[N+]([O-])c1cccc(S(=O)(=O)N/N=C\c2ccc3c(c2)OCO3)c1 | inconclusive: 37.9 µM [inhibitor, single point]
12 | Cc1ccsc1/C=N/NC(=O)c1ccccn1 | active: 8.49 µM
13 | CCc1ccc(-c2ccc(SCc3ccccn3)nn2)cc1 | active: 8.49 µM
14 | CC(NC(=O)COC(=O)c1cn(-c2ccccc2)nc1-c1cccs1)c1ccccc1 (stereo not drawn) | inconclusive: 37.9 µM [inhibitor, partial curve, poor fit]
15 | CCOc1ccc(/C=C2\SC(=S)N(N3C(=O)C4CC4C3=O)C2=O)cc1 (stereo not drawn) | inconclusive: 7.57 µM [inhibitor, partial curve, poor fit]
16 | CC(C)(C)NC(=S)N/N=C/c1cc(Br)c(O)c(Br)c1 | inconclusive: 26.9 µM [inhibitor, single point]
17 | CN(C)c1ccc(C(=S)NC2CCCCC2)cc1 | active: 4.78 µM
18 | Cc1cccc(Nc2nc3c(s2)CCCC3)c1 | active: 4.78 µM
19 | Cc1nnc(NC(=O)CCC(=O)N2CCN(CCOc3cccc4ccccc34)CC2)s1 | inactive
20 | Cc1csc(NC(=O)CSc2ncc(-c3ccccc3)[nH]2)n1 | inconclusive: 23.9 µM [inhibitor, partial curve, poor fit]
21 | CCC(C)c1ccc(NC(=S)N2CCN(c3ccccn3)CC2)cc1 (stereo not drawn) | inconclusive: 23.9 µM [inhibitor, partial curve]
22 | COc1ccc(Cc2nc(-c3cccc(C)c3)no2)cc1 | active: 13.5 µM
23 | O=C(/C=C\Nc1ccc2c(c1)OCO2)c1ccc2c(c1)OCO2 | active: 0.135 µM
24 | COc1ccccc1Oc1ccc2c(c1)C(=O)N(c1ccc(C)cc1)C2=O | inconclusive: 13.5 µM [inhibitor, partial curve]
25 | CCCNC(=O)C1CCC(Cn2c(=O)c3sccc3n(CC(=O)NCc3ccccc3)c2=O)CC1 (stereo not drawn) | inactive

Row | SMILES | Potency
26 | Nc1cccc(C(=O)Nc2ccc(N)cc2Cl)c1 | inconclusive: 37.9 µM [inhibitor, partial curve, poor fit]
27 | CN(CC(=O)Nc1cccc(F)c1)C(=O)c1csc2c1CCCC2 | inactive
28 | O=C(/C=C/N1CCOCC1)c1cc2ccccc2o1 | active: 9.53 µM
29 | Cc1ccc(C(=O)Nc2ccc(Cl)cc2C)c(Cl)c1 | active: 1.69 µM
30 | CCOc1ccc(S(=O)(=O)N(CC(=O)Nc2ccc(OC)cc2OC)c2ccccc2)cc1 | inactive
31 | COc1ccc(C(=O)Nc2nc3cc4c(cc3s2)OCCO4)c(OC)c1 | active: 0.953 µM
32 | COc1ccc(/C=C2\SC(c3ccc(C)cc3)=NC2=O)cc1OC | inconclusive: 5.36 µM [inhibitor, partial curve, poor fit]
33 | CCOC(=O)NC(=O)/C(C#N)=C\Nc1ccc(Cl)cc1Cl | active: 13.5 µM
34 | CC(C)(C)c1ccc(NC(=O)Cn2cnc3cc([N+](=O)[O-])ccc3c2=O)cc1 | inactive
35 | CC1=Nc2ccccc2/C1=C\c1nc(-c2ccc(F)cc2)oc1O | inconclusive: 10.7 µM [inhibitor, partial curve]
36 | CC(=O)Nc1ccc(SCC(=O)c2cc(C)n(-c3ccccc3F)c2C)cc1 | active: 6.01 µM
37 | O=C(CNC(=O)c1ccc(Br)o1)Nc1ccc(N2CCCCCC2)cc1 | inconclusive: 30.1 µM [inhibitor, single point]
38 | COC(=O)Cc1csc(NC(=O)c2ccc3ncsc3c2)n1 | active: 23.9 µM
39 | Cc1sc(-n2c(C)cc(/C=N/n3cnnc3)c2C)c(C#N)c1C | inconclusive: 26.9 µM [inhibitor, partial curve, poor fit]
40 | O=C(Nc1nc(-c2ccccn2)cs1)c1ncc(Cl)c(Cl)c1Cl | inconclusive: 10.7 µM [inhibitor, partial curve]
41 | Cc1csc(NC(=O)C(C)Oc2ccc(Cl)cc2C)n1 (stereo not drawn) | inconclusive: 21.3 µM [inhibitor, single point]
42 | O=C(c1ccccc1)c1c[nH]c2cc3c(cc2c1=O)OCCO3 | inconclusive: 21.3 µM [inhibitor, partial curve]
43 | Cc1cccc(NC(=O)c2cnc3sc(N4CCCC4)nn3c2=O)c1C | inactive
44 | CCc1ccc(OCc2ccc(C(=O)NCc3ccccn3)o2)cc1 | inconclusive: 42.6 µM [inhibitor, partial curve, poor fit]
45 | Cc1nn(C)c(C)c1S(=O)(=O)N(CC(=O)NCCc1ccc(Cl)cc1)c1ccc(C(C)C)cc1 | inactive
46 | Cc1ccsc1/C=N/NC(=O)C(N)=O | inconclusive: 19 µM [inhibitor, partial curve]
47 | Cc1cc(NC2CCCCC2)nc(-c2ccccc2O)n1 | inconclusive: 21.3 µM [inhibitor, partial curve, poor fit]
48 | COc1ccccc1C(=O)Nc1nnc(S(=O)(=O)N2CCOCC2)s1 | inconclusive: 33.8 µM [inhibitor, single point]
49 | COc1ccc(-c2nsc(SCC(=O)NCC3CCCO3)n2)cc1 (stereo not drawn) | active: 15.1 µM
50 | COCCNC(=O)c1cc(-c2cccnc2)nc2ccc(Br)cc12 | inconclusive: 30.1 µM [inhibitor, partial curve, poor fit]

Row | SMILES | Potency
51 | CCOC(=O)c1c(NC(=O)CSc2cccc[n+]2[O-])sc(C(=O)Nc2ccccc2)c1C | inconclusive: 21.3 µM [inhibitor, single point]
52 | O=C(O)c1cc(-c2ccc(/C=C3\NC(=O)N(c4ccccc4)C3=O)o2)ccc1Cl | inconclusive: 23.9 µM [inhibitor, single point]
53 | Cc1cc(C(=O)NC2CCCc3c2cnn3-c2ccc(C(C)(C)C)cc2)n[nH]1 (stereo not drawn) | inconclusive: 26.9 µM [inhibitor, single point]
54 | COc1cccc2sc3ccc(C#CC4(O)CCCCC4)cc3c(=O)c12 | active: 2.13 µM
55 | CCC1CCc2nc3sc(C(=O)Nc4cccc(F)c4)c(N)c3cc2C1 (stereo not drawn) | inactive
56 | O=C(Nc1ccc(S(=O)(=O)Nc2ncccn2)cc1)C(F)(F)F | inactive
57 | COCCCn1c(SCC(=O)OC2CCCCC2)nnc1-c1ccco1 | active: 12 µM
58 | CCN(CC)c1ccc(NC(=O)CSc2n[nH]c(-c3ccco3)n2)cc1 | inconclusive: 23.9 µM [inhibitor, partial curve]
59 | O=c1cc(CN2CCc3ccccc3C2)nc2sccn12 | inactive
60 | COc1cccc(NC(=O)CSc2nc(C)c(Cc3ccccc3)c(=O)[nH]2)c1 | inconclusive: 10.7 µM [inhibitor, partial curve]
61 | COc1ccc(Cc2nnc(SCC(=O)Nc3cc(Cl)ccc3C)[nH]c2=O)cc1 | inconclusive: 26.9 µM [inhibitor, partial curve, poor fit]
62 | Cc1c(C)c2ccc(OCC(=O)c3ccccc3)cc2oc1=O | inconclusive: 2.13 µM [inhibitor, full curve]
63 | CCN(CC)c1ccc(C(=O)NCc2nc3cccnc3n2Cc2ccc(C)cc2)cc1 | inactive
64 | COc1ccc2oc(C(=O)OCC(=O)N3C(C)CCCC3C)c(C)c2c1 (stereo not drawn) | inconclusive: 37.9 µM [inhibitor, partial curve, poor fit]
65 | CCOC(=O)c1c(C)oc(NC(=O)COc2ccc(Cl)cc2C)c1C#N | inconclusive: 37.9 µM [inhibitor, partial curve, poor fit]
66 | Cc1c(C)c2c(cc(C)c3c(-c4ccc(Br)cc4)coc32)oc1=O | inactive
67 | COc1ccc(-c2nc(NC(C)=O)sc2-c2ccc(OC)cc2)cc1 | inactive
68 | O=C(NC1=NCCS1)c1cccc(NC(=O)c2ccco2)c1 | inconclusive: 19 µM [inhibitor, partial curve]
69 | CCOC(=O)Cc1csc(NC(=O)/C=C/c2ccc(OC)cc2)n1 | active: 1.35 µM
70 | O=C(Nc1nnc(S(=O)(=O)N2CCOCC2)s1)c1ccc(Cl)cc1 | inconclusive: 37.9 µM [inhibitor, partial curve, poor fit]
71 | COc1cc2nc3c4ccccc4n(CC#N)c3nc2cc1OC | inconclusive: 2.39 µM [inhibitor, partial curve, poor fit]
72 | COc1ccc(-c2c(-c3ccsc3)oc(=O)c3cc(OC)c(OC)cc23)cc1 | inconclusive: 13.5 µM [inhibitor, partial curve, poor fit]
73 | Cc1csc(NC(=O)c2cc([N+](=O)[O-])cc([N+](=O)[O-])c2)n1 | inconclusive: 19 µM [inhibitor, partial curve, poor fit]
